This passage reports binding results from PMC11828465.

Amino acid sequences for entries named in this document (tags omitted). Residues count along the entry.
UniProt P51149: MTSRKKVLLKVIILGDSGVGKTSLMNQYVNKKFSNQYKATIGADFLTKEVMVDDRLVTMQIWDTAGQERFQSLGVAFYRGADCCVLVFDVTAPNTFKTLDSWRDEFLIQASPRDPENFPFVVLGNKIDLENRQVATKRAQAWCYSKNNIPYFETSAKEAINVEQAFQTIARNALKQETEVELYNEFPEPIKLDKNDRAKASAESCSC
UniProt Q99523, residues 78-831: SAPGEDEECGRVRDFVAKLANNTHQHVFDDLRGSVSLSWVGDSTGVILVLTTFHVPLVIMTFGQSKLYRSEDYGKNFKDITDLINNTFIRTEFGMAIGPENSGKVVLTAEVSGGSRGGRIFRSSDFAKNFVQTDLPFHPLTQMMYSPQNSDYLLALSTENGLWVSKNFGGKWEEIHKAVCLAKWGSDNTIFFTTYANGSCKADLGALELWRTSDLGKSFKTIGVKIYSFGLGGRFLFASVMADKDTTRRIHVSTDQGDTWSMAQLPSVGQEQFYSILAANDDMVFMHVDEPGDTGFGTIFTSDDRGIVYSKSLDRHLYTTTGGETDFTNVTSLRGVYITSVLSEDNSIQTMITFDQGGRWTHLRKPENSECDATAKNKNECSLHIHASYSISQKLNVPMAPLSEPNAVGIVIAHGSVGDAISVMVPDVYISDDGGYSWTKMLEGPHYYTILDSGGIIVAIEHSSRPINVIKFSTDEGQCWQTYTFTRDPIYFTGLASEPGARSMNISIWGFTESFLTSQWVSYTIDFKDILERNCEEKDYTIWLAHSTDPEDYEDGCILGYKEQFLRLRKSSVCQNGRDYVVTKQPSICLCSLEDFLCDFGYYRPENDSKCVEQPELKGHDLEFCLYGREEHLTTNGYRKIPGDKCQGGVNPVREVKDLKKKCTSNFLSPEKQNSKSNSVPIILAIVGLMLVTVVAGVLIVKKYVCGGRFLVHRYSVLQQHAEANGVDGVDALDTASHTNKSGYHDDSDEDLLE
UniProt P62820: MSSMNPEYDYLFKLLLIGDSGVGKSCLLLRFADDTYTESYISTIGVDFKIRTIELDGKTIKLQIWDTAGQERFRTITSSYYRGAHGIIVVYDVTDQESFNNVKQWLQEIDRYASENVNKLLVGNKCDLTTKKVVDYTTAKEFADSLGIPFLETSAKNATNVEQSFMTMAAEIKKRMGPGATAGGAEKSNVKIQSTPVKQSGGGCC

Among the targets are RlucII–Rab7A wild-type (UniProt P51149); sortilin–RlucII (UniProt Q99523); RlucII–Rab1a (UniProt P62820).
Common to all, as to assay: FRET or BRET; BRET titration curves in live wild-type HEK293 cells: constant amount of the RlucII fusion, increasing amounts of the GFP10 fusion; 48 h post transfection; cells in PBS, coelenterazine 400a 5 µM, read after 2 min at RT; BRET50 from BRETnet against GFP10 fluorescence/RlucII …
For orientation: BRET reads energy transfer from a luciferase to a nearby fluorophore.

No constants are given. Whether binding was seen depends on the method and setting. Binding seen in cells or lysates may run through a third protein. Sequences can lack the tags named with a protein.

B1: µ1–GFP10 (protein, UniProt Q9BXS5 1-423)
chain: MSASAVYVLDLKGKVLICRNYRGDVDMSEVEHFMPILMEKEEEGMLSPILAHGGVRFMWIKHNNLYLVATSKKNACVSLVFSFLYKVVQVFSEYFKELEEESIRDNFVIIYELLDELMDFGYPQTTDSKILQEYITQEGHKLETGAPRPPATVTNAVSWRSEGIKYRKNEVFLDVIESVNLLVSANGNVLRSEIVGSIKMRVFLSGMPELRLGLNDKVLFDNTGRGKSKSVELEDVKFHQCVRLSRFENDRTISFIPPDGEFELMSYRLNTHVKPLIWIESVIEKHSHSRIEYMIKAKSQFKRRSTANNVEIHIPVPNDADSPKFKTTVGSVKWVPENSEIVWSIKSFPGGKEYLMRAHFGLPSVEAEDKEGKPPISVKFEIPYFTTSGIQVRYLKIIEKSGYQALPWVRYITQNGDYQLRTQ
Take B1: the binding entry in the assay with RlucII–Rab7A wild-type was “no binding”.

B2: GFP10–Vps41 (protein, UniProt P49754 1-854)
chain: MAEAEEQETGSLEESTDESEEEESEEEPKLKYERLSNGVTEILQKDAASCMTVHDKFLALGTHYGKVYLLDVQGNITQKFDVSPVKINQISLDESGEHMGVCSEDGKVQVFGLYSGEEFHETFDCPIKIIAVHPHFVRSSCKQFVTGGKKLLLFERSWMNRWKSAVLHEGEGNIRSVKWRGHLIAWANNMGVKIFDIISKQRITNVPRDDISLRPDMYPCSLCWKDNVTLIIGWGTSVKVCSVKERHASEMRDLPSRYVEIVSQFETEFYISGLAPLCDQLVVLSYVKEISEKTEREYCARPRLDIIQPLSETCEEISSDALTVRGFQENECRDYHLEYSEGESLFYIVSPRDVVVAKERDQDDHIDWLLEKKKYEEALMAAEISQKNIKRHKILDIGLAYINHLVERGDYDIAARKCQKILGKNAALWEYEVYKFKEIGQLKAISPYLPRGDPVLKPLIYEMILHEFLESDYEGFATLIREWPGDLYNNSVIVQAVRDHLKKDSQNKTLLKTLAELYTYDKNYGNALEIYLTLRHKDVFQLIHKHNLFSSIKDKIVLLMDFDSEKAVDMLLDNEDKISIKKVVEELEDRPELQHVYLHKLFKRDHHKGQRYHEKQISLYAEYDRPNLLPFLRDSTHCPLEKALEICQQRNFVEETVYLLSRMGNSRSALKMIMEELHDVDKAIEFAKEQDDGELWEDLILYSIDKPPFITGLLNNIGTHVDPILLIHRIKEGMEIPNLRDSLVKILQDYNLQILLREGCKKILVADSLSLLKKMHRTQMKGVLVDEENICESCLSPILPSDAAKPFSVVVFHCRHMFHKECLPMPSMNSAAQFCNICSAKNRGPGSAILEMKK
In the case of B2, the binding entry with sortilin–RlucII is “no binding”.

B3: GFP10–FYCO1 (protein, UniProt Q9BQS8 1-1478)
chain: MASTNAESQLQRIIRDLQDAVTELSKEFQEAGEPITDDSTSLHKFSYKLEYLLQFDQKEKATLLGNKKDYWDYFCACLAKVKGANDGIRFVKSISELRTSLGKGRAFIRYSLVHQRLADTLQQCFMNTKVTSDWYYARSPFLQPKLSSDIVGQLYELTEVQFDLASRGFDLDAAWPTFARRTLTTGSSAYLWKPPSRSSSMSSLVSSYLQTQEMVSNFDLNSPLNNEALEGFDEMRLELDQLEVREKQLRERMQQLDRENQELRAAVSQQGEQLQTERERGRTAAEDNVRLTCLVAELQKQWEVTQATQNTVKELQTCLQGLELGAAEKEEDYHTALRRLESMLQPLAQELEATRDSLDKKNQHLASFPGWLAMAQQKADTASDTKGRQEPIPSDAAQEMQELGEKLQALERERTKVEEVNRQQSAQLEQLVKELQLKEDARASLERLVKEMAPLQEELSGKGQEADQLWRRLQELLAHTSSWEEELAELRREKKQQQEEKELLEQEVRSLTRQLQFLETQLAQVSQHVSDLEEQKKQLIQDKDHLSQQVGMLERLAGPPGPELPVAGEKNEALVPVNSSLQEAWGKPEEEQRGLQEAQLDDTKVQEGSQEEELRQANRELEKELQNVVGRNQLLEGKLQALQADYQALQQRESAIQGSLASLEAEQASIRHLGDQMEASLLAVRKAKEAMKAQMAEKEAILQSKEGECQQLREEVEQCQQLAEARHRELRALESQCQQQTQLIEVLTAEKGQQGVGPPTDNEARELAAQLALSQAQLEVHQGEVQRLQAQVVDLQAKMRAALDDQDKVQSQLSMAEAVLREHKTLVQQLKEQNEALNRAHVQELLQCSEREGALQEERADEAQQREEELRALQEELSQAKCSSEEAQLEHAELQEQLHRANTDTAELGIQVCALTVEKERVEEALACAVQELQDAKEAASREREGLERQVAGLQQEKESLQEKLKAAKAAAGSLPGLQAQLAQAEQRAQSLQEAAHQELNTLKFQLSAEIMDYQSRLKNAGEECKSLRGQLEEQGRQLQAAEEAVEKLKATQADMGEKLSCTSNHLAECQAAMLRKDKEGAALREDLERTQKELEKATTKIQEYYNKLCQEVTNRERNDQKMLADLDDLNRTKKYLEERLIELLRDKDALWQKSDALEFQQKLSAEERWLGDTEANHCLDCKREFSWMVRRHHCRICGRIFCYYCCNNYVLSKHGGKKERCCRACFQKLSEGPGSPDSSGSGTSQGEPSPALSPASPGPQATGGQGANTDYRPPDDAVFDIITDEELCQIQESGSSLPETPTETDSLDPNAAEQDTTSTSLTPEDTEDMPVGQDSEICLLKSGELMIKVPLTVDEIASFGEGSRELFVRSSTYSLIPITVAEAGLTISWVFSSDPKSISFSVVFQEAEDTPLDQCKVLIPTTRCNSHKENIQGQLKVRTPGIYMLIFDNTFSRFVSKKVFYHLTVDRPVIYDGSDFL
Turning to B3, in the assay with RlucII–Rab1a, the binding result is listed as “no binding”.
